PubChem BioAssay AID1030 (National Center for Advancing Translational Sciences (NCATS), 2008)
The whole screen tested about 220,000 compounds, of which about 16,000 (7.3%) were called active. The inconclusive results got no clear call from the source; some entries with a clear call stand among them for comparison. The call rests on the fitted dose curve; in most records, active means well fitted inhibition curve with a large enough effect (not every such curve was filed as active); inconclusive means small, poorly fitted or top-dose-only effect, or another doubt; inactive means no such curve, though single readings can be large or run the other way. Potencies of inconclusive entries are left out as doubtful fits.

Target: Aldehyde dehydrogenase 1A1 (Homo sapiens) (UniProt P00352)
UniProt P00352, sequence (P00352 whole entry, looked up): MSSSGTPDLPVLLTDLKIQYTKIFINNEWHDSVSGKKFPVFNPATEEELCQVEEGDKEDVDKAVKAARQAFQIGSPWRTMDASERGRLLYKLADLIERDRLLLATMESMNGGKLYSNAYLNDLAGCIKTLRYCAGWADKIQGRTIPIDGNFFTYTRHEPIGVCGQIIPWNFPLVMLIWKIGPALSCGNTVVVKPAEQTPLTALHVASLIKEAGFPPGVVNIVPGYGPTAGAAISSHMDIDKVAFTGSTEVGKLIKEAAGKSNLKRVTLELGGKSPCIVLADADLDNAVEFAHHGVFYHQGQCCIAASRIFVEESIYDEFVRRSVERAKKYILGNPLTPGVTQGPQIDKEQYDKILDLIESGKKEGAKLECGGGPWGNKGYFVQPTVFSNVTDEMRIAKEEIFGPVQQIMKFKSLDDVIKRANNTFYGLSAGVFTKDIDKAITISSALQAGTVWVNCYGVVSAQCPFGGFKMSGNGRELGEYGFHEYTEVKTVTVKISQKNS
Experiment: qHTS Assay for Inhibitors of Aldehyde Dehydrogenase 1 (ALDH1A1);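 on activity, negative = inhibition: plate controls were no enzyme wells and a reference inhibitor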
Details: Purified ALDH1A1, NADH fluorescence, propionaldehyde substrate; series mostly up to 75.3 µM; activity, negative = inhibition: at the top concentration
Potency means the concentration at half of the fitted maximal effect; tags describe the fitted curve by direction and shape.

| Compound | Potency | activity, negative = inhibition |
| --- | --- | --- |
| CN(C)c1ccc(-c2nccc(NCc3ccccc3)n2)cc1 | inconclusive [inhibitor, partial curve] | – |
| CCOc1ccc(NC(=O)CCN2CCN(S(=O)(=O)c3ccc(OC)cc3)CC2)cc1 | – | inactive: -7.22% |
| CCCCCOC(=O)c1ccc(NC(=O)c2ccco2)cc1 | inconclusive [inhibitor, single point] | – |
| O=C(NC1CCS(=O)(=O)C1)c1cccc(S(=O)(=O)N2CCCCCC2)c1 (stereo not given) | inconclusive [inhibitor, single point] | – |
| CC(C)CN1CCNC(=O)C1CC(=O)NCc1cnn(-c2cccc(F)c2)c1 (stereo not given) | inconclusive [inhibitor, partial curve] | – |
| CCN(Cc1ccccc1)c1ccc(/C=N/N2CCOCC2)cc1 | active: 2.24 µM | – |
| COC(=O)CCC(NC(=O)OCc1ccccc1)C(=O)NC(CC(C)C)C(=O)OC (stereo not given) | – | inactive: 4.45% |
| CCOc1ccccc1CN(CCc1ccc2c(c1)OCO2)Cc1ccccn1 | – | inactive: -11.3% |
| Cc1cc(C)c(NC(=O)CSc2nccn2C)c(C)c1 | – | inactive: -7.3% |
| O=C(NCCCN1CCOCC1)c1ccc(CNS(=O)(=O)c2ccc(Br)cc2)cc1 | active: 22.4 µM | – |
| CCCOc1ccc(-c2nnc(-c3cccs3)o2)cc1 | inconclusive [inhibitor, partial curve] | – |
| CCCC(=O)NCCCCNC(=O)CCC | – | inactive: 12.4% |
| Cc1cc(C(=O)OCC(=O)NCc2ccco2)c(C)n1-c1ccccc1 | – | inactive: -9.68% |
| CCN1C(=O)CSc2ccc(C(=O)NC3CCCCC3)cc21 | active: 12.6 µM | – |
| Nc1ncnc(Sc2ncccn2)c1[N+](=O)[O-] | – | inactive: -12.1% |
| CCCCSC1=C(C#N)C(c2ccccc2C)C(C(=O)OCC)C(=O)N1 (stereo not given) | inconclusive [inhibitor, partial curve] | – |
| COCCNc1nc(C)nc2c1nc(-c1ccccc1)n2CCCN1CCCCC1C (stereo not given) | inconclusive [inhibitor, partial curve] | – |
| C=CCCCC | – | inactive: 22.4% |
| COc1ccc(N2C(=O)c3ccccc3NC2c2ccc(OC)c(COc3ccccn3)c2)cc1 (stereo not given) | inconclusive [inhibitor, single point] | – |
| C=CCc1cccc(CNc2nc3ccccc3n2CCC)c1O | inconclusive [inhibitor, single point] | – |
| NNC(=O)Nc1cccc(C(F)(F)F)c1 | inconclusive [inhibitor, single point] | – |
| Cc1c(Cl)c([N+](=O)[O-])nn1CCCC(=O)N1CCN(c2ccccc2)CC1 | inconclusive [inhibitor, single point] | – |
| Cc1ccc(-n2c(C)cc(C(=O)CSc3nncs3)c2C)cc1 | – | inactive: 5.54% |
| O=C(CN1C(=O)c2ccccc2C1=O)Nc1ccc(S(=O)(=O)N2CCOCC2)cc1 | inconclusive [inhibitor, single point] | – |
| CCNC(=S)NS(=O)(=O)c1ccc(CC)cc1 | inconclusive [inhibitor, single point] | – |

| Compound | Potency | activity, negative = inhibition |
| --- | --- | --- |
| COc1ccc(NC(=S)N(CCN(C)C)C(C)c2ccco2)cc1Cl (stereo not given) | – | inactive: -4.03% |
| CC1CCN(c2ccc(NC(=S)NC(=O)c3ccc(-c4cccc([N+](=O)[O-])c4)o3)cc2)CC1 | inconclusive [inhibitor, single point] | – |
| O=C(COC(=O)c1c2ccccc2cc2ccccc12)Nc1ncc(C(F)(F)F)cc1Cl | inconclusive [inhibitor, partial curve] | – |
| CCc1nccn1C(=O)c1cnn2c(C(F)F)cc(-c3ccccc3)nc12 | inconclusive [inhibitor, partial curve] | – |
| CC(C)n1c(-c2ccc(N(C)C)cc2)nc2ccccc21 | inconclusive [inhibitor, partial curve] | – |
| CSc1ccc(/C=C(\C#N)C(=O)NC2CCCCC2C)cc1 (stereo not given) | inconclusive [inhibitor, single point] | – |
| CC(C)C(NC(=O)OCc1ccccc1)C(=O)OCC(=O)N1C(C)CCCC1C (stereo not given) | inconclusive [inhibitor, single point] | – |
| O=C1CC(C2CCCO2)C(=O)N1Cc1ccccc1 (stereo not given) | inconclusive [inhibitor, single point] | – |
| CSC1=NSC2=NC(=O)/C(=C\c3cccs3)C(=N)N12 | inconclusive [inhibitor, single point] | – |
| COc1ccc2cc(CCNC(=O)C3CCCC3)c(=O)[nH]c2c1 | inconclusive [inhibitor, single point] | – |
| CCCCc1ccc(-n2nnnc2SCC(=O)Nc2cc(OC)c([N+](=O)[O-])cc2C)cc1 | inconclusive [inhibitor, single point] | – |
| CC(C)CCn1c(SCc2ccc(Cl)cc2)nc2c1c(=O)[nH]c(=O)n2C | active: 11.2 µM | – |
| Cc1c(CCO)c(=O)[nH]n1C(=O)c1ccc(F)cc1 | – | inactive: 5.11% |
| CN1CCN(c2ncc3nc(-c4ccccc4)c(=O)n(C4CC4)c3n2)CC1 | inconclusive [inhibitor, partial curve] | – |
| CC(c1ccccc1)N1CCN(C(=O)CCl)CC1 (stereo not given) | active: 0.447 µM | – |
| COc1cc(/C=N/NC(=O)c2ccncc2)ccc1OC(=O)c1ccccc1Cl | – | inactive: -3.62% |
| O=C1CC(c2cccs2)c2cc3c(cc2N1)OCO3 (stereo not given) | inconclusive [inhibitor, single point] | – |
| COCCOC(=O)C1=C(C)OC(N)=C(C#N)C1c1ccc2c(c1)OCO2 (stereo not given) | active: 12.6 µM | – |
| O=C(Cn1nnc(-c2ccccc2-n2cnnn2)n1)NCc1ccccc1 | active: 10 µM | – |
| Cc1ccccc1-n1c(C)nnc1SCC(=O)N(C)C1CCS(=O)(=O)C1 (stereo not given) | – | inactive: -1.3% |
| COC(=O)c1ccccc1N=Nc1c(N)n[nH]c1N | inconclusive [inhibitor, single point] | – |
| Cc1ccc(C)c(N2CCN(C(=O)CCCN3C(=S)NC(C)(C)CC3C)CC2)c1 (stereo not given) | inconclusive [inhibitor, single point] | – |
| O=C(/C=C/c1ccccc1[N+](=O)[O-])N1CCCCC1 | inconclusive [inhibitor, single point] | – |
| O=S(=O)(Nc1ncccn1)c1ccc(NC(=S)Nc2cccc(Cl)c2)cc1 | inconclusive [inhibitor, single point] | – |
| COc1ccc(O[C@H]2C=C[C@@H](c3ccccc3)O[C@@H]2COC(=O)CC/C(C)=N/O[C@@H](C)CN2CCCCc3nc(C)c(C)cc32)cc1 | – | inactive: -11.7% |

| Compound | Potency | activity, negative = inhibition |
| --- | --- | --- |
| CCN(CC)S(=O)(=O)c1cccc(-c2nnc(SCc3nnc(-c4ccccc4)o3)n2C)c1 | inconclusive [inhibitor, single point] | – |
| CCOc1ccccc1O[C@@H](c1ccccc1)[C@@H]1CNCCO1 | inconclusive [inhibitor, partial curve] | – |
| CC(=O)c1c(C)[nH]c(C(=O)N2CCN(c3ncccn3)CC2)c1C | – | inactive: 12.2% |
| O=S(=O)(NC1CCc2ccccc21)c1ccc(S(=O)(=O)N2CCCC2)cc1 (stereo not given) | active: 14.1 µM | – |
| COc1ccc(C2C(C(C)=O)=C(O)C(=O)N2CCc2ccccc2)c(OC)c1 (stereo not given) | – | inactive: 2.98% |
| CC1(C)CCC(C)(C)c2cc(C(=O)Nc3ccc(C(=O)O)cc3)ccc21 | inactive | – |
| COc1cccc(CN2CCN(Cc3nc(-c4cccc(F)c4F)oc3C)CC2=O)c1 | active: 25.1 µM | – |
| CCCCC(=O)Nc1cc(-c2nc3ncccc3o2)ccc1C | inconclusive [inhibitor, single point] | – |
| Cc1ccc(C(=O)c2ccc([N+](=O)[O-])cc2)cc1 | – | inactive: -7.21% |
| CON(C)S(=O)(=O)c1ccc2c(c1)NC(=O)C1CCCN21 (stereo not given) | inconclusive [inhibitor, single point] | – |
| Cc1ccc(CNc2ncc(-c3ccccc3)n2C)o1 | inconclusive [inhibitor, partial curve] | – |
| COC(=O)c1sccc1NC(=S)N1CCCCC1 | active: 7.94 µM | – |
| COc1ccc(CNC(=O)c2ccc(NC(=O)C3CCCO3)cc2)cc1 (stereo not given) | inconclusive [inhibitor, single point] | – |
| CN1CCc2nc(SCC(=O)Nc3ccc(F)cc3)c(C#N)cc2C1 | inconclusive [inhibitor, single point] | – |
| CCOC(=O)c1sc(=S)n(Cc2ccccc2)c1N | – | inactive: -6.61% |
| Nc1c2c(nc3ccn(-c4ccccc4)c(=O)c13)CCCCC2 | inconclusive [inhibitor, single point] | – |
| C/C(=N\NC(=O)C1COc2ccccc2O1)c1cccs1 (stereo not given) | inconclusive [inhibitor, single point] | – |
| COCCNC(=O)CN(C)S(=O)(=O)c1ccc2c(c1)OCCO2 | – | inactive: 3.49% |
| COc1c2ccoc2nc2c(OC)cccc12 | inconclusive [inhibitor, partial curve] | – |
| CCn1c(=O)cc(SCC(=O)NCc2cccnc2)c2ccccc21 | inconclusive [inhibitor, partial curve] | – |
| CCCCNC(=O)/C=C/c1ccc(S(=O)(=O)Nc2ccc(OC)cc2)cc1 | – | inactive: 6% |
| Cc1occc1C(=O)N/N=C/c1ccccn1 | active: 28.2 µM | – |
| COC(=O)c1sc(S(=O)(=O)Nc2ccc3cn[nH]c3c2)c(C(=O)OC)c1C | inconclusive [inhibitor, single point] | – |
| Cc1ccc(C(=O)N2CCN(C)CC2)cc1S(=O)(=O)N1CCCCC1 | inconclusive [inhibitor, single point] | – |
| O=C(Nc1ccc(Oc2ccc(S(=O)(=O)N3CCOCC3)cn2)cc1)c1ccco1 | inconclusive [inhibitor, single point] | – |
